Data reported in PMC12136788.
Some of the results follow.

T1: UNK ZnF1-3 (human, UniProt Q9C0B0 31-174)
T1 sequence: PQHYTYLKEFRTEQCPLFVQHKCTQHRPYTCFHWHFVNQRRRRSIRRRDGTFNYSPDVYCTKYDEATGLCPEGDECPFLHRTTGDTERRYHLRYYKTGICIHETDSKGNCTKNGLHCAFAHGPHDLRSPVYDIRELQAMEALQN

B1: 28365595_28365715_1176_CDS_ENSMUSG00000049643_ENSMUST00000067386|mouse|control|control (ssRNA)
RNA: GGGAGUUCUACAGUCCGACGAUCCUUACUCUUGGUGCUUGUGACCUGGCUGUCCUGUGCCUCGGACACAACGGCAGCCUUGCCCAGUCUCUGAAGGAUGCUGACUUUGGGCAGGGAAUCCGGCUUCUUCUCCAGCCCAGGGCGCAACAGAGGAUUGAGCAUCA
B2: chr1:163112212:163112213:-_ENSG00000143248_ENST00000313961|hu_hu|hu_hu_hu_mus_False|48_108 (ssRNA)
RNA: GGGAGUUCUACAGUCCGACGAUCUUUAUUUAUCCAGAAGAGUGAGUUACAUACUAGGCAAAGUAUUGGAUACAAUAAUCAGGAAACAAACACAAUUGGUCCAGAAUUUAAAACUUUAUGAGCGAAGUGCUGGCACAGGACUUACAACAGAGGAUUGAGCAUCA
B3: chr2:198351390:198351391:-_ENSG00000144381_ENST00000345042|hu_hu|hu_hu_hu_mus_False|1_8 (ssRNA)
RNA: GGGAGUUCUACAGUCCGACGAUCUCAUUCCCACCCUCCACAGAAAGGCUGCUUCUGAACUCUCAUGUGGUGACACAGCGCUACAGUCCUGAUGCUCACAGAACAGUAGAGAUGCCUCAGUGAUUUAUUAAGUUGAAAGCAGUACAACAGAGGAUUGAGCAUCA
B4: chr3:20017139:20017140:+_ENSG00000144566_ENST00000273047|hu_mus|motif|central (ssRNA)
RNA: GGGAGUUCUACAGUCCGACGAUCGAUAUCAUACACAACUAUGGCUGCUUGUGCUCCUCGGUAGUACAUUGGUGCGGAGCGGUGAUACCGUUCUUGACCAGCUGUAUCCCAUAUUUCAAAUUUUACUGUUGUGUCAUCAAGACACAACAGAGGAUUGAGCAUCA
B5: chr3:52742126:52742127:+_ENSG00000114902_ENST00000602728|hu_hu|FALSE|FALSE (ssRNA)
RNA: GGGAGUUCUACAGUCCGACGAUCGAAACAUUAAAAUGGUUAACUCAUAAUGAAUUAUAAAACUUUGAUAGUUACAUUGUACUAUCAUUUAUGAGGCAUUUAUUUUUCAUUAUUUACACCUGAAAGAAACUUCAUACUUGUGUGCAACAGAGGAUUGAGCAUCA
B6: chrX:109746815:109746816:+_ENSMUSG00000025529_ENSMUST00000071814|perfect_dup|FALSE|FALSE (ssRNA)
RNA: GGGAGUUCUACAGUCCGACGAUCUGUUUUAAAGUCACAGUGCCUGCACUGAUGAAUCUUCCUACCCUUAUGGAUAUCACUAUGCUUUUUGAGCUCAGAAGGACGAUGAAAACCUUUAUCACAGACCUCACAUUUGUGAGGAAACAACAGAGGAUUGAGCAUCA
B7: chr11:64088491:64088492:+_ENSG00000126432_ENST00000265462|hu_hu|motif|central (ssRNA)
RNA: GGGAGUUCUACAGUCCGACGAUCCACCAUGGAGAACCUCUUGAGACGUCGAUUCCCAAAGAUGGACACCAGCGAAUCAUCGGGUAAUAAGUCUGUCUCCUUCCCAAAGGCCCCAGUGGGAUCAGCCAGGAGCCGAACCUUGCCCAACAGAGGAUUGAGCAUCA
B8: chr2:34631547:34631548:+_ENSMUSG00000026864_ENSMUST00000100171|mus_mus|FALSE|FALSE (ssRNA)
RNA: GGGAGUUCUACAGUCCGACGAUCUGGGGGAGGGCCUCCACUUCCAUAGAGUUUGCUGAUAAUUGGCUGAACAAUUUCUUCUAGUUCCUUCUUUUUGGCUUUAAAGUCUUCAAUGUCCGCAUCCUGGUGGCUUUCCAGCCAUUCCAACAGAGGAUUGAGCAUCA
B9: chr4:144460044:144460045:+_ENSG00000153147_ENST00000283131|hu_mus|hu_hu_hu_mus_False|8_88 (ssRNA)
RNA: GGGAGUUCUACAGUCCGACGAUCACGGUCCAUAGCCUGAAGAUCAACUUGGGGAUUCCAAUCUGAGUCAUAUAAAAUGACUACAUCAGCAGUUGCAAGAUUGAUGCCCAGACCACCAGCACGUGUGCUUAACAUGAAUACAAACAACAGAGGAUUGAGCAUCA
B10: 72180598_72180718_2139_3pUTR_ENSG00000080371_ENST00000261263|human|control|control (ssRNA)
RNA: GGGAGUUCUACAGUCCGACGAUCAAAUGAAAGCUAUUGCAGAAGUGAAAUUCAACAUGAGCCACCCAAAUUCUUCUAAGGUAACCAUUCUAAAGCAAAAUCAGCAGAAGUCAUCUCUUCUAUAAUAACAAACAAAAAACCCAACAACAGAGGAUUGAGCAUCA
B11: chr14:103803487:103803488:+_ENSG00000100664_ENST00000558506|hu_mus|hu_hu_hu_mus_True|28_28 (ssRNA)
RNA: GGGAGUUCUACAGUCCGACGAUCGAGUUUAUGAUGUGUGUCAAGCAUGCCUCGGUACCCACAGGCUUUACAAGAAUUACCUAUUGUUUGCUUCUUUGGAUUGACAUGCAAAUCUGUUUCAGGAUUCUCACACUCAGGACAGAGCAACAGAGGAUUGAGCAUCA
B12: chr10:88205819:88205820:+_ENSMUSG00000060904_ENSMUST00000116234|mus_hu|FALSE|FALSE (ssRNA)
RNA: GGGAGUUCUACAGUCCGACGAUCCUUCAUUUCAGGGGAGAAGAAUGGACUGAAUUACUGUCUGCUUUUUAAUGUUUCAACUAACCAUUCCAUUGCCUCAUCAAGGCCGGUGCCUUUGGUUGCUGACGUUUUGAAUAUCUGCCACAACAGAGGAUUGAGCAUCA
B13: chr9:116041357:116041358:+_ENSG00000136875_ENST00000374198|hu_hu|motif|central (ssRNA)
RNA: GGGAGUUCUACAGUCCGACGAUCUUCUCUUCUUUCAGCAGGACCCUCUCCAAAAAGUGUGAUGGGUUCCCCCAAGGCUCGGAGGCAAGCUUUGACCUCUGAGUCAUCUGUGGAAACAUUGAUCUGCCGGGCUCGCUUCCUUCUCAACAGAGGAUUGAGCAUCA
B14: chr7:28127222:28127223:-_ENSMUSG00000089832_ENSMUST00000003857|mus_hu|FALSE|FALSE (ssRNA)
RNA: GGGAGUUCUACAGUCCGACGAUCAUUGGGGAGGGUGACUUUGGCUUCCAGAAAAGAGGGAAGGUGGGGACCUAGUAACAAUAACCAUUUAUUCCAAGGAGGCCCUGGCCCUGAACCCGGGGUUCCCACAGGAAUCAGGGAGGCCAACAGAGGAUUGAGCAUCA
B15: chr15:76588000:76588001:-_ENSG00000140374_ENST00000560595|hu_hu|FALSE|FALSE (ssRNA)
RNA: GGGAGUUCUACAGUCCGACGAUCGGACACUUCACCUCCAAGGCGUGUGGCUGCAGUAAUGGUAUUUAAAGUAAUGGGUGCUAGGGAAUCAUUUGCAUGCUCAGCUAUUACCAGGGUACUCUGAAAUCGUAGCAAUGAGGCCGCCAACAGAGGAUUGAGCAUCA
B16: chr16:8858281:8858282:+_ENSMUSG00000022507_ENSMUST00000023150|mus_hu|FALSE|FALSE (ssRNA)
RNA: GGGAGUUCUACAGUCCGACGAUCGACAAAUUCAUUAGGUGCAUUUGAAAGUAAACGCAAUGGAAAAAAGUAACAAAUGCUAAAGUUUUCUAAAAGUUUAAUGAAGCCAAUAAGGCAUAUAAAUUGUGUUCUGGCAGACAUUAACAACAGAGGAUUGAGCAUCA
B17: chr10:94110891:94110892:+_ENSG00000198060_ENST00000358935|hu_mus|FALSE|FALSE (ssRNA)
RNA: GGGAGUUCUACAGUCCGACGAUCCUCUGGAUAAUUUAGGAUUUUGCGGUGUGCCUGACGUAAAUAUUGCUGCUGUUUGAAGUAAACCUUAAAUGCUCCUUUUAUGGCAACAAAAGCAAUUCCACCCAAGAUUGUCCUUUGUAACAACAGAGGAUUGAGCAUCA
B18: 27598453_27598573_1137_CDS_ENSG00000115234_ENST00000233575|human|control|control (ssRNA)
RNA: GGGAGUUCUACAGUCCGACGAUCGGAGGUGACCCGCCAGCAUCGCAUGCGGGUGACCCGGAAGGAGCCUUCUCGGAGUUGCUGGCCAGGCAGGCGGAGCUGCAGGCUGAGCUCACUGUUGCCCGCGCUCACCACCACAGGACACAACAGAGGAUUGAGCAUCA
B19: 96234110_96239110_754_CDS_ENSMUSG00000032412_ENSMUST00000034983|mouse|control|control (ssRNA)
RNA: GGGAGUUCUACAGUCCGACGAUCAACAUGCCGUUUUUUCCCAUAAUAUGGAAAAUACUUUAAGUCUAAAACUCCAAAUUCAGGAUAAGUUGCUAUAGUUGCGUUUUCUUCCUUUGGCAAACACGAUAUUUGUGGAUAUCCGUCCAACAGAGGAUUGAGCAUCA
B20: chr6:108204272:108204273:-_ENSG00000025796_ENST00000369002|hu_hu|FALSE|FALSE (ssRNA)
RNA: GGGAGUUCUACAGUCCGACGAUCUUGCUCUCUAUCAGAGUCUCUGUCACUACCAUCAUCUUUCUCACUUUGGGAAUCUCUAUUGGUUUCUUCUUCUUCAGAAUCACUGCCCUUAUCUGAAACUUCUUCUUCAUCUUCCUUUACCAACAGAGGAUUGAGCAUCA
B21: chr1:178664722:178664723:-_ENSMUSG00000057335_ENSMUST00000057037|mus_mus|FALSE|FALSE (ssRNA)
RNA: GGGAGUUCUACAGUCCGACGAUCAGUCGUUGUUGCUGUCUUGCAGGGUCCUUACAAAUGUGUAAGACUGACAAAGGGUUACUAUGGACCUACAGGGAAACACAGAAGCAAUUCAAUGACUGGGAGUGCAACUAUCAACUACUCCAACAGAGGAUUGAGCAUCA
B22: chr1:94914716:94914717:-_ENSMUSG00000014602_ENSMUST00000171796|mus_hu|motif|central (ssRNA)
RNA: GGGAGUUCUACAGUCCGACGAUCUAAAUAGAACAAGUCUUAUAGUUAAUUUCCGAGUUGACUGUUUCAAUGUCACGGACGGACGUAUAUUAAUUAUAAGUCUGUCUAUGCUUAAAAAAAUAUUAGAACGGCAGCAAGAACCCCCAACAGAGGAUUGAGCAUCA

target: T1, UNK ZnF1-3; assay: nsRBNS (natural sequence RNA bind-n-seq); RBNS binding buffer (assumed for nsRBNS): 25 mM Tris pH 7.5, 150 mM KCl, 3 mM MgCl2, 0.01% Triton X-100, 500 ug/ml BSA, 20 U/ml SUPERase-In, 4 C; UNK is unkempt and MSI1 is Musashi-1; names of the RNAs are library labels; protein concentration not given here; high values mean tight binding

Question: For B1, which binding signal is on record?
Answer: 0.615 enrichment R

Question: For B2, which binding signal is on record?
Answer: 1.85 enrichment R

Question: How did the binding signal turn out when B3 was run?
Answer: 1.65 enrichment R

Question: B4 was tested. Which binding signal did it give?
Answer: 0.812 enrichment R

Question: With B5 as the binder, how does the binding signal read?
Answer: 0.714 enrichment R

Question: Which binding signal does the source give for B6 here?
Answer: 0.678 enrichment R

Question: How did the binding signal turn out when B7 was run?
Answer: 1.13 enrichment R

Question: B8 was tested. Which binding signal did it give?
Answer: 0.347 enrichment R

Question: Which binding signal does the source give for B9 here?
Answer: 1.27 enrichment R

Question: How did the binding signal turn out when B10 was run?
Answer: 2.29 enrichment R

Question: B11 was tested. Which binding signal did it give?
Answer: 1.14 enrichment R

Question: Which binding signal does the source give for B12 here?
Answer: 0.763 enrichment R

Question: B13 was tested. Which binding signal did it give?
Answer: 0.692 enrichment R

Question: For B14, which binding signal is on record?
Answer: 1.41 enrichment R

Question: For B15, which binding signal is on record?
Answer: 1.13 enrichment R

Question: For B16, which binding signal is on record?
Answer: 1.12 enrichment R

Question: With B17 as the binder, how does the binding signal read?
Answer: 1 enrichment R

Question: How did the binding signal turn out when B18 was run?
Answer: 0.825 enrichment R

Question: For B19, which binding signal is on record?
Answer: 0.805 enrichment R

Question: How did the binding signal turn out when B20 was run?
Answer: 0.428 enrichment R

Question: How did the binding signal turn out when B21 was run?
Answer: 1.04 enrichment R

Question: Which binding signal does the source give for B22 here?
Answer: 1.68 enrichment R
